Laboratory results as given in PubChem BioAssay AID2147 (National Center for Advancing Translational Sciences (NCATS), 2009).
In all, about 230,000 compounds went through this assay and about 3,600 (1.6%) were called active. The inconclusive results got no clear call from the source; some entries with a clear call stand among them for comparison. Calls follow the shape of the dose curve; as a rule, active = well fitted inhibition curve with a large enough effect (not every such curve was filed as active); inconclusive = small, poorly fitted or top-dose-only effect, or another doubt; inactive = no such curve, though single readings can be large or run the other way. Potencies beside an inconclusive call are fits to weak or partial responses and may not hold up.

Each molecule was assayed against Lysine-specific demethylase 4E (Homo sapiens) (UniProt B2RXH2) (assay: qHTS Assay for Inhibitors of Human Jumonji Domain Containing 2E (JMJD2E)). Settings: JMJD2E catalytic domain, FDH-coupled NADH fluorescence (FDH is formaldehyde dehydrogenase); series mostly up to 57.1 µM; activity change, negative = inhibition: at the top concentration.
Also: nearly all actives have a fitted effect of over 50% in size.
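For activity change, negative = inhibition in this document: 0% = wells with enzyme and -100% = buffer wells without enzyme.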
Potency is read from the fitted curve at half-maximal effect; tags tell the direction and shape of the fitted curve.

Sequence of UniProt B2RXH2 (B2RXH2 whole entry, looked up, the tested form may be a part): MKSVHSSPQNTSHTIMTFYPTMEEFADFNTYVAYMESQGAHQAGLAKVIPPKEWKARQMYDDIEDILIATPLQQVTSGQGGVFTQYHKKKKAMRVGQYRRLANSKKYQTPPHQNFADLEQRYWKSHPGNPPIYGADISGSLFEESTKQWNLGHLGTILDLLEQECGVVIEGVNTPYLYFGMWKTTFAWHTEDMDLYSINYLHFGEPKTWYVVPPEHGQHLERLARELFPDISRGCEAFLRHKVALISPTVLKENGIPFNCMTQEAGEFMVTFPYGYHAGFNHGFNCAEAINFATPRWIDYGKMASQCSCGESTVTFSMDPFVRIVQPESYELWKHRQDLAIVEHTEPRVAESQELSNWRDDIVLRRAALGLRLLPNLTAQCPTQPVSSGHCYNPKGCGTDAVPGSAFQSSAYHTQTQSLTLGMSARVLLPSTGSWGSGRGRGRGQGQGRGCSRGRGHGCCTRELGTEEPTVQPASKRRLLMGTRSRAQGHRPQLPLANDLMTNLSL

SMILES | activity change, negative = inhibition | Potency
CCC1CCCCN1C(=O)c1sc2nc(C)nc(N(CC)CC)c2c1C (stereo unspecified) | inactive: 1.88% | 
Cc1c(OCC(=O)OC(C)(C)C)ccc2c3c(c(=O)oc12)CCC3 |  | inconclusive: 25.1 µM [inhibitor, partial curve]
COc1ccc(C2C(C#N)=C(N)Oc3c2c(C)nn3-c2ccccc2)cc1Cn1nc(C)c([N+](=O)[O-])c1C (stereo unspecified) | inactive: -18.3% | 
Cc1cc(C)nc(N/N=C/c2c[nH]c3ccccc23)n1 | inactive: 5.2% | 
CSc1nc2n(n1)C(c1cccs1)C1=C(CCCC1=O)N2 (stereo unspecified) |  | inconclusive: 28.2 µM [inhibitor, partial curve]
CCCCCCCCn1c(=O)c(C(=O)OC)c(N)c2ccccc21 |  | inconclusive: 39.8 µM [inhibitor, single point]
COc1ccc(NC(=O)C2CCN(C(=O)NC3CCCCC3)CC2)c(OC)c1 | inactive: 1.22% | 
COc1ccc(C)cc1-n1nnnc1SCC(=O)c1ccc2c(c1)OCCO2 | inactive: -1.77% | 
COc1ccc(NC(=S)N(CCN2CCOCC2)Cc2cc3cc4c(cc3[nH]c2=O)OCCO4)cc1 |  | inconclusive: 22.4 µM [inhibitor, partial curve]
COc1cc(CN2CCC(C(=O)N3CCCC(C)C3)CC2)cc(Br)c1O (stereo unspecified) |  | inconclusive: 39.8 µM [inhibitor, single point]
CN1CN(C)c2cccc3cccc1c23 |  | inconclusive: 28.2 µM [inhibitor, partial curve]
O=C(/C(=N/N=C/c1ccc(O)c(O)c1O)c1ccccc1)c1ccccc1 | inactive: 0.867% | 
Cc1ccc(/C=C/c2nnc(-c3cccc(C)c3)o2)cc1 |  | inconclusive: 8.91 µM [inhibitor, single point]
O=C(CNC1CCCCC1)Nc1cc(S(=O)(=O)N2CCOCC2)ccc1Cl | inactive: 117% | 
COc1ccccc1NC(=O)c1c(NC(=O)c2ccco2)sc2c1CCC2 |  | inconclusive: 3.98 µM [inhibitor, full curve]
COC(=O)c1ccc(-c2nc3ccc(C)cc3o2)cc1 |  | inconclusive: 3.55 µM [inhibitor, full curve]
CC1CCN(C(=O)/C(=C\c2cccs2)NC(=O)c2ccccc2)CC1 |  | inconclusive: 39.8 µM [inhibitor, single point]
c1ccc(COc2ccc(OCCCCN3CCCC3)cc2)cc1 |  | inconclusive: 31.6 µM [inhibitor, single point]
COc1ccccc1/C=C\C=N\n1c(-c2ccc(Cl)cc2)n[nH]c1=S |  | inconclusive: 25.1 µM [inhibitor, partial curve]
Cc1cc(=O)oc2cc(OCC(=O)OCC(=O)N(C)C3CCS(=O)(=O)C3)ccc12 (stereo unspecified) |  | inconclusive: 25.1 µM [inhibitor, partial curve]
CC(C)C(CCN1C(=O)c2ccccc2C1=O)c1ccco1 (stereo unspecified) | inactive: -4.02% | 
C=CCNC(=O)c1cc2c(=O)n3cc(C)ccc3nc2nc1NCC1CCCO1 (stereo unspecified) |  | inconclusive: 28.2 µM [inhibitor, partial curve]
NS(=O)(=O)c1ccc(NC(=O)COC(=O)c2cn(-c3ccccc3)nc2-c2ccccc2)cc1 |  | inconclusive: 39.8 µM [inhibitor, single point]
O=C(CCl)N(C/C=C/c1ccccc1)c1ccc2c(c1)OCCO2 | inactive: -13.1% | 

SMILES | activity change, negative = inhibition | Potency
CCCCOc1ccc(/C=C/C(=O)Nc2ccc([N+](=O)[O-])cc2C)cc1 |  | inconclusive: 39.8 µM [inhibitor, single point]
Cc1cc2nc(-c3cccnc3SCC(=O)NC3CC3)[nH]c2cc1C |  | inconclusive: 8.91 µM [inhibitor, full curve]
Nc1nnc(CC(=O)N/N=C/c2ccccc2OCc2ccccc2F)s1 |  | inconclusive: 28.2 µM [inhibitor, single point]
CCn1c(=O)n(CC)c2cc(N)ccc21 |  | inconclusive: 35.5 µM [inhibitor, single point]
Cc1noc(C)c1COC(=O)c1cc(=O)[nH]c2ccccc12 |  | inconclusive: 28.2 µM [inhibitor, partial curve]
COc1ccc2[nH]cc(CCNC(=O)C3CCCO3)c2c1 (stereo unspecified) |  | inconclusive: 39.8 µM [inhibitor, single point]
CCOc1ccc(-c2cc3nc(C4CCN(C(=O)OC(C)(C)C)CC4)c(C(=O)O)cn3n2)cc1 |  | inconclusive: 8.91 µM [inhibitor, full curve]
COc1ccc(-c2nc(C#N)c(NCc3ccc(F)cc3)o2)cc1OC |  | inconclusive: 31.6 µM [inhibitor, partial curve]
COc1cccc(-c2c(C#N)c(N)nc3c2c(=O)nc2sccn23)c1 | inactive: -4.41% | 
COCCCNC(=O)CC1C(=O)N(Cc2ccccc2)C(C)c2nc3ccccc3n21 (stereo unspecified) | inactive: -4.5% | 
O=C(NCCC1=CCCCC1)C1CCN(S(=O)(=O)N2CCOCC2)CC1 | inactive: 6.39% | 
S=c1[nH]nc(COc2ccccc2)n1/N=C/c1ccco1 |  | inconclusive: 35.5 µM [inhibitor, single point]
S=C(NCCOCCOCCNC(=S)Nc1ccccc1)Nc1ccccc1 | inactive: -29.5% | 
CCOc1ccc(C2N(c3cc(C)on3)C(=O)C3CCCN32)cc1OC (stereo unspecified) | inactive: -6.22% | 
CN(C)S(=O)(=O)c1cccc(-c2cn3ccccc3n2)c1 |  | inconclusive: 31.6 µM [inhibitor, single point]
CCOC(=O)c1c(NC(=O)CSc2nnc(-c3c[nH]c4ccccc34)n2C)sc2c1CCCC2 |  | inconclusive: 39.8 µM [inhibitor, single point]
O=S(=O)(N/N=C/c1ccc(N2CCOCC2)cc1)c1ccc(Br)cc1 |  | inconclusive: 39.8 µM [inhibitor, single point]
COc1cccc(CNS(=O)(=O)/C=C/c2ccc3c(c2)OCO3)c1 |  | inconclusive: 39.8 µM [inhibitor, single point]
Cc1oc(C)c2c(=O)ccc3c(c12)OC(N)=C(C#N)C3c1ccc(F)cc1 (stereo unspecified) |  | inconclusive: 20 µM [inhibitor, partial curve]
CCC(=Cc1ccc(CC)cn1)CC |  | inconclusive: 39.8 µM [inhibitor, single point]
Cn1c(CCN2CCOCC2)nc2cc(NC(=O)COc3ccccc3)ccc21 |  | inconclusive: 35.5 µM [inhibitor, single point]
COCCCNC(=S)N/N=C/c1cccc(OC)c1O |  | inconclusive: 35.5 µM [inhibitor, single point]
COc1ccc(/C=C/C2=CC(C)(C)NC(=S)N2)cc1OC | inactive: -6.46% | 
O=C1/C(=C/c2c[nH]c3ccccc23)CCC/C1=C\c1c[nH]c2ccccc12 |  | inconclusive: 25.1 µM [inhibitor, single point]

SMILES | activity change, negative = inhibition | Potency
C=CCOc1ccc(CN(C)CC(=O)N(CC(C)C)c2c(N)n(CC(C)C)c(=O)[nH]c2=O)cc1 | inactive: -13.6% | 
CC1=NN(c2ccccc2)C(=O)C1C(=O)C(=O)Nc1ccc(F)cc1 (stereo unspecified) |  | inconclusive: 22.4 µM [inhibitor, partial curve]
CC(C)(C)C(=O)COC(=O)c1cc(-c2cccnc2)nc2ccccc12 |  | inconclusive: 22.4 µM [inhibitor, partial curve]
Cc1cc(=O)oc(C)c1C(=O)NCc1ccccn1 | inactive: -5.7% | 
CN(C)S(=O)(=O)c1ccc(C(=O)Nc2ccc(CCC(=O)N3CCCC3)cc2)cc1 | inactive: 4.11% | 
Cc1ccccc1N1CC2=C(C1=O)C(c1ccccc1)NC(=O)N2C (stereo unspecified) |  | inconclusive: 28.2 µM [inhibitor, single point]
COc1ccc2[nH]c3c(=O)n(Cc4ccc(C(=O)N5CCC(C(N)=O)CC5)cc4)c(=S)[nH]c3c2c1 |  | inconclusive: 28.2 µM [inhibitor, partial curve]
Cc1ccc(Cl)c(OCCCCN(C)Cc2ccccc2)c1 |  | inconclusive: 39.8 µM [inhibitor, single point]
Cn1ccnc1C(O)c1ccccc1 (stereo unspecified) |  | inconclusive: 39.8 µM [inhibitor, single point]
Cc1ccc(S(=O)(=O)N/N=C\C=C\c2ccccc2)cc1 |  | inconclusive: 35.5 µM [inhibitor, single point]
O=C1c2ccccc2C(Nc2ccc(Cl)cn2)N1Cc1ccccc1 (stereo unspecified) | inactive: -9.1% | 
CC1CCCN(Cc2c(O)ccc3c2O/C(=C\c2ccco2)C3=O)C1 (stereo unspecified) |  | inconclusive: 39.8 µM [inhibitor, single point]
CCN(CC)CCNCc1cc(Cl)ccc1OCc1ccccc1F |  | inconclusive: 28.2 µM [inhibitor, partial curve, poor fit]
Clc1ccc(SCCCN2CCCCC2)cc1 |  | inconclusive: 25.1 µM [inhibitor, single point]
CCc1nnc(SCc2cn3c(C)cc(C)nc3n2)n1N |  | inconclusive: 28.2 µM [inhibitor, partial curve]
O=C(NC(=S)NNC(=O)c1ccccc1O)c1cccnc1 |  | active: 20 µM
O=S1(=O)N=C(Oc2cccc3ccccc23)c2ccccc21 |  | inconclusive: 31.6 µM [inhibitor, single point]
COC(=O)CCC(=O)c1oc2ccccc2c1N |  | inconclusive: 22.4 µM [inhibitor, single point]
COc1cccc2c(=O)c3cccc(N)c3[nH]c12 |  | inconclusive: 28.2 µM [inhibitor, partial curve]
Cc1ccc(-c2nnc(OCc3cccnc3)c3ccccc23)cc1 |  | inconclusive: 3.98 µM [inhibitor, single point]
Cc1ccc(-n2c(C)cc(/C=C3\NC(=O)NC3=O)c2C)c(C)c1 |  | active: 25.1 µM
O=c1[nH]c2ccccc2nc1NCCN1CCOCC1 |  | inconclusive: 28.2 µM [inhibitor, single point]
Cc1ccc(-c2cc(Cc3ccccn3)c(=O)[nH]n2)cc1 |  | inconclusive: 35.5 µM [inhibitor, single point]
